Out of some 150,000 compounds screened, about 540 (0.36%) showed an effect of 50% or more. Some of the results follow.

For the assay, the system named is Plasmodium falciparum. In words: Primary screen in NF54 nanoGlo assay, in single point, at 2uM, 72h; a lower Z score goes with more inhibition. The class given is functional, Erythrocyte. Conditions: timepoint 72 hour.
Consider `CCn1cnnc1CN(C)CC[C@H]1CC1(F)F`, for which the “% Inhibition” value is -3% and the Z score came out at 0.41.
As to `CCn1nc(-c2ccc(C)o2)nc1CN1C(=O)CNC1=O`, the “% Inhibition” value stood at 13% and the Z score was -1.85.
For `CCOC1CC(NC2CC(c3ccc(F)cc3)C2)C12CCC2` (configuration not stated), the “% Inhibition” value amounted to 85% and the Z score is reported as -15.92.
In the case of `O=C(NC[C@H](OCCO)c1ccsc1)c1ccc2c(c1)OCO2`, the “% Inhibition” value is listed as -7% and the Z score came out at 1.01.
In the case of `CC(F)(F)CC(=O)Nc1cccc(O)c1`, the “% Inhibition” value was found to be 8% and the Z score was -1.02.
As for `COc1ccccc1N1CCN(C[C@]2(O)CCCN(CC(C)(C)C)C2=O)CC1`, the “% Inhibition” value is recorded as 7% and the Z score is -0.81.
`Cc1ncsc1CCN(C)Cc1c(C)noc1C`: the “% Inhibition” value is listed as -10% and the Z score is given as 1.73.
For `CCN(CC(=O)N1CCCCCC1)C(=O)c1cc(C(C)C)n(C)n1`, the “% Inhibition” value is recorded as -15% and the Z score came to 1.95.
`CCOc1ccc(-c2cn(C3CN(C(=O)c4cccnc4)C3)nn2)cc1`: the “% Inhibition” value is -9% and the Z score was determined as 0.83.
Take `O=C(c1cccnc1)N1CC[C@@]2(CCCN(CC3CCCCC3)C2=O)C1`: the “% Inhibition” value was -12% and the Z score turned out to be 2.11.
`CN1C(=O)c2cccn2C[C@@H]1CNC(=O)c1nccn1C`: the “% Inhibition” value was -6% and the Z score worked out at 1.11.
For `O=C(Cn1cccnc1=O)N(Cc1ccccn1)C1CCCCC1`, the “% Inhibition” value is listed as -8% and the Z score stood at 1.73.
For `Cc1ccsc1CN(C)[C@@H](C(=O)O)c1c(C)noc1C` the same measures were -6% and 0.54.
For the compound `Cn1cc(C(=O)N2CCCN([C@H]3COC[C@@H]3O)CC2)c(=O)c2ccccc21`, the “% Inhibition” value is reported as -6% and the Z score was 0.8.
Taken in the same sequence, the figures for `Cc1c(F)cccc1S(=O)(=O)N1CC[C@H](c2nccn2C)C1` were 1% and -0.07.
Turning to `Cc1nn(-c2ccc(F)cc2)c2[nH]nc(NC(=O)Cn3cnnn3)c12`, the “% Inhibition” value is given as -7% and the Z score was found to be 0.88.
Regarding `Cc1cc(S(=O)(=O)CC#N)ccc1F`, the “% Inhibition” value is 1% and the Z score was -0.15.
Take `CCC(=O)N(Cc1ccc(C)cc1)c1ccc(CC(=O)NCc2ccccc2)cc1`: the “% Inhibition” value is given as -22% and the Z score is 2.16.
Consider `Clc1ccc(-c2noc(C3CNC3)n2)cc1`, for which the “% Inhibition” value was found to be 37% and the Z score is given as -3.77.
For `CCOC1CC(N(C)C(=O)c2ccc(COC)o2)C12CCCC2` (configuration not stated) the same measures were -14% and 1.51.
For the compound `O=C1NC2(CCCCCCC2)C(=O)N1C[C@H](O)c1ccccc1F`, the “% Inhibition” value is recorded as -21% and the Z score came to 3.53.
Regarding `Cc1[nH]c2ccccc2c1C(c1ccccc1OCc1ccccc1Cl)c1c(C)[nH]c2ccccc12`, the “% Inhibition” value was -10% and the Z score was found to be 1.26.
Take `CC(C)c1nc(C(=O)N2CCN(c3ccc4ccccc4c3)CC2)cs1`: the “% Inhibition” value is on record as -5% and the Z score is given as 0.73.
Consider `CC(C)N(C)c1ccc(CNCc2ccc3c(c2)OCCO3)cn1`, for which the “% Inhibition” value is given as -8% and the Z score came to 0.84.
Turning to `Cc1noc(C)c1CN1CCN2C(=O)c3ccc(-c4ccccc4)cc3OCC[C@@H]3CC[C@H](O)[C@@H](CNC(=O)[C@@H]2C1)O3`, the “% Inhibition” value is on record as -10% and the Z score came to 1.83.
Consider `CC(=O)Nc1cccc(NC(=O)COC(=O)c2ccc3c(c2)nc(C)n3-c2ccccc2)c1`, for which the “% Inhibition” value is -7% and the Z score came to 1.34.
`CC1CCN(C[C@H](O)Cn2cnc3nc(N4CCCC4)sc3c2=O)CC1`: the “% Inhibition” value is given as -15% and the Z score was 1.22.
As to `CCn1nc(C)cc1-c1nc(-c2c(C)ncc3c2CCN(C(C)=O)C3)no1`, the “% Inhibition” value is recorded as -9% and the Z score was 1.7.
With `Cc1cc(NCc2ccc(C(=O)N(C)C)[nH]2)ccc1C(=O)NC(C)C`, the “% Inhibition” value was 2% and the Z score was -0.28.
Regarding `CC1CCCCC1NC(=O)COC(=O)c1ccc2nccnc2c1` (configuration not stated), the “% Inhibition” value was -1% and the Z score is on record as 0.07.
Take `CCn1nc(CC(C)C)cc1C(=O)NCCc1cn2cccnc2n1`: the “% Inhibition” value is recorded as -5% and the Z score came out at 0.94.
Regarding `Cc1ccc(S(=O)(=O)N2CCN(C(=O)CN3CCCCCC3)CC2)cc1`, the “% Inhibition” value is listed as -15% and the Z score stood at 2.19.
In the case of `O=C(c1ccn2c(-c3ccc(F)cc3)nnc2c1)N1CCN(c2cccc(C(F)(F)F)c2)CC1`, the “% Inhibition” value is reported as -13% and the Z score was 2.21.
On to `c1ccc(COC[C@H](Nc2ncnc3ccccc23)c2ccccc2)cc1`, for which the “% Inhibition” value was -12% and the Z score turned out to be 1.08.
Take `Cc1cc(C(=O)N2CC(C(=O)Nc3ccc(F)c(Cl)c3)C2)no1`: the “% Inhibition” value was -1% and the Z score amounted to 0.23.
For `CCCN(CC1CC1)S(=O)(=O)c1cccs1`, the “% Inhibition” value is listed as -8% and the Z score was 0.99.
As for `Cn1nc(C2CCCC2)cc1NC(=O)c1ccc(OCC(=O)O)cc1`, the “% Inhibition” value is 1% and the Z score is -0.23.
Consider `Cc1ccc(NC(=O)c2cn(CC3(O)CCN(Cc4ccccc4)CC3)nn2)c(C)c1`, for which the “% Inhibition” value is listed as 36% and the Z score is -1.1.
Consider `O=C(NC[C@H](O)c1ccc2c(c1)OCCO2)Nc1ccccc1C(F)(F)F`, for which the “% Inhibition” value came to 7% and the Z score is -0.95.
Consider `O=C1C[C@H](c2ncc[nH]2)c2cnn(-c3ccccc3)c2N1`, for which the “% Inhibition” value is recorded as -10% and the Z score amounted to 1.79.
As to `O=C(Cc1cccc(C(=O)O)c1)NC1(Cc2ccc(F)cc2)CC1`, the “% Inhibition” value was -30% and the Z score came to 3.47.

The term % Inhibition denotes the relative decrease from the control value, in per cent.

The values above are taken from ChEMBL document CHEMBL4888484, “Replenishing the malaria drug discovery pipeline: Screening and hit evaluation of the MMV Hit Generation Library 1 (HGL1) against asexual blood stage Plasmodium falciparum ,using a nano luciferase reporter read-out” (2022).
